# In article PMC10726135:
# The list shows a part of the results. At the low end of the ranking the order means little. The protein was read in a cell extract, so binding may be indirect.
# Target: T1, HNF4alpha2 (COS-7 nuclear extract) (UniProt P41235)
# T1 sequence: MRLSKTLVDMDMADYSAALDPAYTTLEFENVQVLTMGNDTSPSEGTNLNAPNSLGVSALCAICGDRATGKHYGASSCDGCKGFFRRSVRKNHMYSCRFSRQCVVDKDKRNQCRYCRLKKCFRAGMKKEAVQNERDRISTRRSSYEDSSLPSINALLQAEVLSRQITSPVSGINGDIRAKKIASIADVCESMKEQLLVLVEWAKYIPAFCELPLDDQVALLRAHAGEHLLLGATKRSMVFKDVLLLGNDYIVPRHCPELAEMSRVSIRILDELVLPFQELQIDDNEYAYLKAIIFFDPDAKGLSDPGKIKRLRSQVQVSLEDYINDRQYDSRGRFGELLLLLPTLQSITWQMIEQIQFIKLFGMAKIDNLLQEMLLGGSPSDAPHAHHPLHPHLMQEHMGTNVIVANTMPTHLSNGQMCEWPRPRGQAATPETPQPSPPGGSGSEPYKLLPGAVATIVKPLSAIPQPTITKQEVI
# Test: protein-binding microarray
# Details: COS-7 nuclear extract on double-stranded Agilent 4x180k PBM; binding buffer, salt, pH and temperature not given; high values mean tight binding; double strand, one strand shown; sequences stand for … in …GCCTAGGGAGATTAGAGTATCGGTCGA
row,Sequence,binding signal (log2 normalized intensity)
1,TGCCTTTGATGTTTCAGCCCTAAAGACCAC,0.422
2,CTCAGATCACAAAAGATGGAACAAGCCAGG,-1.04
3,TATCCCTGGAGCCTTAGAAGATGACCTTTT,5.59
4,AGATCATCCTGCAGTTCCTGATCTTTGACC,7.04
5,TCCTTGACCCTGAAAACAGGGCAAGGAACG,-0.602
6,GGATTGATAGACTTATCTCAGCCTGGCTAA,-1.13
7,CAAAGTACAGTAATTTCACTGATATGGTGA,1.21
8,CAAGGACTCTAAAGGGAATAACCTTTGAGC,5.82
9,TATGACAACAAAGCATTATCTACACAGTAA,-1.13
10,TCTTTCTCCCAGAGGTCGATCTGATCTTAA,1.5
11,AATGGAGGAGTTCAGCAGCATCTAAACTCT,-1.14
12,ATGTGCCAGACACTGCTCTAGGCATTGGAG,-1.13
13,GCTTGGGAGCAGTCCTTGGGGAAGGGGTAC,-0.198
14,AGTTCCCATTTGCGCTGGTTTTATGGTGTC,1.91
15,CAAGGACTTTGAAGGCCCCAATTGCCAAGG,-1.04
16,AGAATAAGGGTTCATCTGACTGGAAGAGCC,-0.861
17,CTGGCCTTTCATGCCGGCGTGACCCCCACT,5.52
18,GGACTTTGAACCTTGGGTCTGTAATCTCAC,7.11
19,ACCCCACTTTGGTTCACCGCTCACTGCTCC,-0.714
20,AGCCTGGGCCCCAGGGGACGTGGAATAGAT,-0.324
21,GGGACCGGCCTTTCCCGGCTGCCTAAGCAC,-1.17
22,TACTCTAGAACACTTTCCACTCTCTACTGA,-1.1
23,CCTGGGATCGAAAGGACATTGTCCATCACC,0.329
24,TCTTTTGAGCTGTGGTTAAGACTCAAAGTT,1.15
25,GTAAGTGTTAATGGCACTTCGTTTCAAAGT,1.06

row,Sequence,binding signal (log2 normalized intensity)
1,TCCGCTTGCCTGAGGGTCATGACTAAAGCA,0.312
2,AAAGCAGCCAACCAGAGGCTGAAGTGAAGT,-0.671
3,GCAGTTTAGAGAAAGGGTCAAAGGTTAAGC,8.4
4,CAGCCGGAGAGGCAAGTATGGTAAGGTCGA,0.972
5,TTCCCTTGTTTACCTTGGTGTTTCTTTGAT,1.68
6,TTACCTCTGCTCCCCCTGCCCTTCGTCCTG,3.93
7,TGCAATAGAGCCACATTCTGAGACTAAAGA,-1.04
8,CCAAAGAAAAAAGCCAATCTCTCAAATCTA,-1.14
9,CTGCTCCCCTGGCCTCACCCTTGTCCCTGA,2.83
10,GGACATTCTATGGAATACAGCAGGGTAGAA,0.324
11,AATCTAGGATAACTCTAGTGATCTTATCAG,-0.736
12,TAAGCTATGTGGTGGAATGGAAAGAATATG,0.569
13,CAGTGCAGCGGGGTCAGAGAAACCTGGCTG,-1.12
14,GGAGACTTCCAGGGAATAAAGAACTCTAAG,-1.04
15,GTTGGGCAGAAGGTGTTTCAGATGGACCAA,1.81
16,GTCCCAGCCTAGGCCTTTGTGTAAACTCCT,-0.407
17,ATCTGGGACAAGGGGGAGGAGAGTACTGTC,-1.2
18,AGTGCCATGTAATCAAACTGAACTTTGAAA,3.76
19,AGAGCAGGACTGATATCCTGGGCTTTTAAT,-1.09
20,AATTTAGCAAGACTGCAAAATAGACAAACA,-1.18
21,CTTGATAACAAAAATATCACAATCCTTAAG,-1.03
22,TGCCCAGGGATTCCTGAAGATCGCAGACTT,-0.953
23,TCTCTTATCACCCTGAACAGTGGCTGGCCA,0.971
24,TGAATACACATAATGTGCTTATCAGCAAGG,0.718
25,ATGCTGGTGTGTGATAAAACCCATGGACCT,2.18

row,Sequence,binding signal (log2 normalized intensity)
1,GCGAATATGTCAGGCTCAGGGACCCAGCGG,-1.09
2,TTGCTGTGCACTTCTCTTTGAGTCCCAATC,0.809
3,CTGACTCAGACTGAGGATGGGCCAAGGTTC,1.98
4,AATAATACTGACTGAGAAACCAAGATCCTA,-1.31
5,AGTTGTCATTTGGGGCGGGCGGTCGGAGTC,1.09
6,TAAATGGACAGACACACCCTTCAGAGCTTG,-1.16
7,CAGGGAACACACCATGTACAGAGAGCATTC,-1.18
8,TTCCTTCCAAAGGTCACAGTAGGGAAAGTG,3.4
9,ATGCATGCTGTGTGTGTGTGTGTGTGTGTG,3.31
10,CCTGGCCTCTGAGGTGTTAACCTGATGCTG,-0.881
11,ACCCCTTCTTGACCTGCGTAGCCCAAAGGT,0.756
12,AAGGTTGGTTTTTGGAGACAGGAGTAGTCA,1.3
13,GGATATCCTGGCAGTGTGGAAAAGCTGGCT,-0.934
14,GCTGAAAGTACTGGCCAGATGAGGTCAGCA,1.89
15,TCTGCAACACTTTCTAAGGACACAACAGAA,-0.92
16,GTGATGACCCCATACTTCAGCAATTTCTTA,1.12
17,AAAAAAAAAAATACTCCTATCACCGAGGGA,-1.09
18,CTCTCTCGTTTTTTTTTTCCCTGAGTCTGT,2.52
19,TCTCAGGTGAGCAGAGGGAGGACAAAGTTC,3.6
20,CAAACAGAACTGTTAACTTTGTACTCAATT,1.89
21,CCTATATAGTTGAGATTGTAACCGTAAATG,1.55
22,GCAAGACTCGTGAAAAGAGTGATCTTTGGG,1.09
23,TGTCCTTTGTCCTGTACCTGGGAAGATAAG,1.68
